# Measured values as given in the supplement of paper PMC8728848.
# This is one part of the list.
# B1: Langerin (Homo sapiens), Q9UJ71 (protein)
# chain: STLNAQIPELKSDLEKASALNTKIRALQGSLENMSKLLKRQNDILQVVSQGWKYFKGNFYYFSLIPKTWYSAEQFCVSRNSHLTSVTSESEQEFLYKTAGGLIYWIGLTKAGMEGDWSWVDDTPFNKVQSARFWIPGEPNDAGNNEHCGNIKAPSLQAWNDAPCDITFLFICKRPYVPSEP
# Key:
# Experiment in all cases: glycan array binding signal (z-score within array); higher = stronger binding
# Conditions in all cases: glycan notation: IUPAC condensed, linker removed; mutation: N288D, K313I
# [1] = target: Neu5Ac(a2-6)Gal(b1-4)GlcNAc(b1-2)[Neu5Ac(a2-6)Gal(b1-4)GlcNAc(b1-4)]Man(a1-3)[GlcNAc(b1-4)][Neu5Ac(a2-6)Gal(b1-4)GlcNAc(b1-2)[Neu5Ac(a2-6)Gal(b1-4)GlcNAc(b1-6)]Man(a1-6)]Man(b1-4)GlcNAc(b1-4)GlcNAc
# Outline: (§1)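 The Consortium for Functional Glycomics database supplied 3228 glycan arrays, of which those lacking an available protein sequence were dropped. The binding signal, a within-array Z-score, was averaged across arrays of the same protein sequence and across linkers. Negative scores can be read as non-binding.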
# [2] = target: Neu5Ac(a2-6)Gal(b1-4)GlcNAc(b1-2)[Neu5Ac(a2-6)Gal(b1-4)GlcNAc(b1-4)]Man(a1-3)[GlcNAc(b1-4)][Neu5Ac(a2-6)Gal(b1-4)GlcNAc(b1-4)Man(a1-6)]Man(b1-4)GlcNAc(b1-4)GlcNAc
# Outline: as §1
# [3] = target: Neu5Ac(a2-6)Gal(b1-4)GlcNAc(b1-2)[Neu5Ac(a2-6)Gal(b1-4)GlcNAc(b1-6)]Man(a1-6)[Neu5Ac(a2-6)Gal(b1-4)GlcNAc(b1-2)Man(a1-3)][GlcNAc(b1-4)]Man(b1-4)GlcNAc(b1-4)GlcNAc
# Outline: as §1
# [4] = target: Neu5Ac(a2-6)Gal(b1-4)GlcNAc(b1-3)Gal(b1-3)GlcNAc
# Outline: as §1
# [5] = target: Neu5Ac(a2-6)Gal(b1-4)GlcNAc(b1-3)Gal(b1-4)GlcNAc
# Outline: as §1
# [6] = target: Neu5Ac(a2-6)Gal(b1-4)GlcNAc(b1-3)Gal(b1-4)GlcNAc(b1-2)Man(a1-3)[Neu5Ac(a2-6)Gal(b1-4)GlcNAc(b1-3)Gal(b1-4)GlcNAc(b1-2)Man(a1-6)]GalNAc
# Outline: as §1
# [7] = target: Neu5Ac(a2-6)Gal(b1-4)GlcNAc(b1-3)Gal(b1-4)GlcNAc(b1-3)Gal(b1-4)GlcNAc
# Outline: as §1
# [8] = target: Neu5Ac(a2-6)Gal(b1-4)GlcNAc(b1-3)Gal(b1-4)GlcNAc(b1-3)Gal(b1-4)GlcNAc(b1-2)Man(a1-3)[Neu5Ac(a2-6)Gal(b1-4)GlcNAc(b1-3)Gal(b1-4)GlcNAc(b1-3)Gal(b1-4)GlcNAc(b1-2)Man(a1-6)]GalNAc
# Outline: as §1
# [9] = target: Neu5Ac(a2-6)Gal(b1-4)GlcNAc(b1-3)Gal(b1-4)GlcNAc(b1-3)GalNAc
# Outline: as §1
# [10] = target: Neu5Ac(a2-6)Gal(b1-4)GlcNAc(b1-3)Gal(b1-4)GlcNAc(b1-3)[Neu5Ac(a2-6)Gal(b1-4)GlcNAc(b1-3)Gal(b1-4)GlcNAc(b1-6)]GalNAc
# Outline: as §1
# [11] = target: Neu5Ac(a2-6)Gal(b1-4)GlcNAc(b1-3)Gal(b1-4)GlcNAc(b1-6)[Gal(b1-3)]GalNAc
# Outline: as §1
# [12] = target: Neu5Ac(a2-6)Gal(b1-4)GlcNAc(b1-3)Gal(b1-4)[Fuc(a1-3)]GlcNAc(b1-3)Gal(b1-4)[Fuc(a1-3)]GlcNAc
# Outline: as §1
# [13] = target: Neu5Ac(a2-6)Gal(b1-4)GlcNAc(b1-3)GalNAc
# Outline: as §1
# [14] = target: Neu5Ac(a2-6)Gal(b1-4)GlcNAc(b1-3)[Neu5Ac(a2-6)Gal(b1-4)GlcNAc(b1-6)]GalNAc
# Outline: as §1
# [15] = target: Neu5Ac(a2-6)Gal(b1-4)GlcNAc(b1-6)GalNAc
# Outline: as §1
# [16] = target: Neu5Ac(a2-6)Gal(b1-4)GlcNAc(b1-6)[Gal(b1-3)GlcNAc(b1-3)]Gal(b1-4)Glc
# Outline: as §1
# [17] = target: Neu5Ac(a2-6)Gal(b1-4)GlcNAc(b1-6)[Gal(b1-3)]GalNAc
# Outline: as §1
# [18] = target: Neu5Ac(a2-6)Gal(b1-4)GlcNAc6S
# Outline: as §1
# Neu5Ac(a2-6)GalNAc = target: Neu5Ac(a2-6)GalNAc
# Outline: as §1
# [19] = target: Neu5Ac(a2-6)GalNAc(b1-4)GlcNAc
# Outline: as §1
# [20] = target: Neu5Ac(a2-6)GalNAc(b1-4)GlcNAc6S
# Outline: as §1
# [21] = target: Neu5Ac(a2-6)GlcNAc(b1-4)GlcNAc
# Outline: as §1
# [22] = target: Neu5Ac(a2-6)GlcNAc(b1-4)GlcNAc(b1-4)GlcNAc
# Outline: as §1
# Neu5Ac(a2-8)Neu5Ac = target: Neu5Ac(a2-8)Neu5Ac
# Outline: as §1
# [23] = target: Neu5Ac(a2-8)Neu5Ac(a2-3)Gal(b1-3)GalNAc(b1-4)[Neu5Ac(a2-3)]Gal(b1-4)Glc
# Outline: as §1
# [24] = target: Neu5Ac(a2-8)Neu5Ac(a2-3)Gal(b1-3)GalNAc(b1-4)[Neu5Ac(a2-8)Neu5Ac(a2-3)]Gal(b1-4)Glc
# Outline: as §1
# [25] = target: Neu5Ac(a2-8)Neu5Ac(a2-3)Gal(b1-4)Glc
# Outline: as §1
# [26] = target: Neu5Ac(a2-8)Neu5Ac(a2-3)Gal(b1-4)GlcNAc
# Outline: as §1
# [27] = target: Neu5Ac(a2-8)Neu5Ac(a2-3)[Gal(b1-3)GalNAc(b1-4)]Gal(b1-4)Glc
# Outline: as §1
# [28] = target: Neu5Ac(a2-8)Neu5Ac(a2-3)[GalNAc(b1-4)]Gal(b1-4)Glc
# Outline: as §1
# [29] = target: Neu5Ac(a2-8)Neu5Ac(a2-8)Neu5Ac
# Outline: as §1
# [30] = target: Neu5Ac(a2-8)Neu5Ac(a2-8)Neu5Ac(a2-3)Gal(b1-4)Glc
# Outline: as §1
# [31] = target: Neu5Ac(a2-8)Neu5Ac(a2-8)Neu5Ac(a2-3)[Gal(b1-3)GalNAc(b1-4)]Gal(b1-4)Glc
# Outline: as §1
# [32] = target: Neu5Ac(a2-8)Neu5Ac(a2-8)Neu5Ac(a2-3)[GalNAc(b1-4)]Gal(b1-4)Glc
# Outline: as §1
# [33] = target: Neu5Ac(a2-8)Neu5Ac(a2-8)Neu5Ac(a2-8)Neu5Ac(a2-3)[GalNAc(b1-4)]Gal(b1-4)Glc
# Outline: as §1
# [34] = target: Neu5Ac(a2-8)Neu5Gc(a2-3)Gal(b1-4)GlcNAc
# Outline: as §1
# [35] = target: Neu5Ac(b2-6)Gal(b1-4)GlcNAc
# Outline: as §1
# Neu5Ac(b2-6)GalNAc = target: Neu5Ac(b2-6)GalNAc
# Outline: as §1
# [36] = target: Neu5Ac9Ac(a2-3)Gal(b1-3)GlcNAc
# Outline: as §1
# [37] = target: Neu5Ac9Ac(a2-3)Gal(b1-4)GlcNAc
# Outline: as §1
# [38] = target: Neu5Ac9Ac(a2-6)Gal(b1-4)GlcNAc
# Outline: as §1
# [39] = target: Neu5Gc(a2-3)Gal(b1-3)GlcNAc
# Outline: as §1
# [40] = target: Neu5Gc(a2-3)Gal(b1-3)[Fuc(a1-4)]GlcNAc
# Outline: as §1
# Neu5Gc(a2-3)Gal(b1-4)Glc = target: Neu5Gc(a2-3)Gal(b1-4)Glc
# Outline: as §1
# [41] = target: Neu5Gc(a2-3)Gal(b1-4)GlcNAc
# Outline: as §1
# [42] = target: Neu5Gc(a2-3)Gal(b1-4)GlcNAc(b1-3)Gal(b1-4)GlcNAc(b1-2)Man(a1-3)[Neu5Gc(a2-3)Gal(b1-4)GlcNAc(b1-3)Gal(b1-4)GlcNAc(b1-2)Man(a1-6)]Man(b1-4)GlcNAc(b1-4)GlcNAc
# Outline: as §1
# [43] = target: Neu5Gc(a2-3)Gal(b1-4)[Fuc(a1-3)]GlcNAc
# Outline: as §1
# [44] = target: Neu5Gc(a2-6)Gal(b1-4)GlcNAc
# Outline: as §1
# Neu5Gc(a2-6)GalNAc = target: Neu5Gc(a2-6)GalNAc
# Outline: as §1
# [45] = target: Neu5Gc(a2-8)Neu5Ac(a2-3)Gal(b1-4)GlcNAc
# Outline: as §1
# [46] = target: Neu5Gc(a2-8)Neu5Gc(a2-3)Gal(b1-4)GlcNAc
# Outline: as §1
# [47] = target: Neu5Gc(a2-8)Neu5Gc(a2-3)Gal(b1-4)GlcNAc(b1-3)Gal(b1-4)GlcNAc
# Outline: as §1
# [48] = target: Neu5Gc(a2-8)Neu5Gc(a2-6)Gal(b1-4)GlcNAc
# Outline: as §1
# [49] = target: Neu5Gc(b2-6)Gal(b1-4)GlcNAc
# Outline: as §1
binder,measurement,setting,value
B1,glycan array binding signal (z-score),[1],-0.271
same,glycan array binding signal (z-score),[2],-0.228
same,glycan array binding signal (z-score),[3],-0.1
same,glycan array binding signal (z-score),[4],-0.267
same,glycan array binding signal (z-score),[5],-0.353
same,glycan array binding signal (z-score),[6],-0.052
same,glycan array binding signal (z-score),[7],-0.299
same,glycan array binding signal (z-score),[8],0.27
same,glycan array binding signal (z-score),[9],-0.24
same,glycan array binding signal (z-score),[10],-0.171
same,glycan array binding signal (z-score),[11],-0.179
same,glycan array binding signal (z-score),[12],0.087
same,glycan array binding signal (z-score),[13],-0.102
same,glycan array binding signal (z-score),[14],0.056
same,glycan array binding signal (z-score),[15],0.078
same,glycan array binding signal (z-score),[16],-0.258
same,glycan array binding signal (z-score),[17],0.089
same,glycan array binding signal (z-score),[18],-0.317
same,glycan array binding signal (z-score),Neu5Ac(a2-6)GalNAc,-0.279
same,glycan array binding signal (z-score),[19],-0.179
same,glycan array binding signal (z-score),[20],-0.171
same,glycan array binding signal (z-score),[21],-0.161
same,glycan array binding signal (z-score),[22],-0.342
same,glycan array binding signal (z-score),Neu5Ac(a2-8)Neu5Ac,-0.262
same,glycan array binding signal (z-score),[23],-0.283
same,glycan array binding signal (z-score),[24],-0.248
same,glycan array binding signal (z-score),[25],-0.237
same,glycan array binding signal (z-score),[26],-0.24
same,glycan array binding signal (z-score),[27],-0.08
same,glycan array binding signal (z-score),[28],-0.041
same,glycan array binding signal (z-score),[29],-0.207
same,glycan array binding signal (z-score),[30],-0.151
same,glycan array binding signal (z-score),[31],-0.318
same,glycan array binding signal (z-score),[32],-0.152
same,glycan array binding signal (z-score),[33],-0.254
same,glycan array binding signal (z-score),[34],-0.209
same,glycan array binding signal (z-score),[35],-0.282
same,glycan array binding signal (z-score),Neu5Ac(b2-6)GalNAc,-0.196
same,glycan array binding signal (z-score),[36],-0.16
same,glycan array binding signal (z-score),[37],-0.434
same,glycan array binding signal (z-score),[38],-0.229
same,glycan array binding signal (z-score),[39],-0.268
same,glycan array binding signal (z-score),[40],-0.213
same,glycan array binding signal (z-score),Neu5Gc(a2-3)Gal(b1-4)Glc,-0.045
same,glycan array binding signal (z-score),[41],-0.287
same,glycan array binding signal (z-score),[42],-0.167
same,glycan array binding signal (z-score),[43],-0.191
same,glycan array binding signal (z-score),[44],-0.375
same,glycan array binding signal (z-score),Neu5Gc(a2-6)GalNAc,-0.265
same,glycan array binding signal (z-score),[45],-0.268
same,glycan array binding signal (z-score),[46],-0.307
same,glycan array binding signal (z-score),[47],-0.261
same,glycan array binding signal (z-score),[48],-0.178
same,glycan array binding signal (z-score),[49],-0.231
